# In the supplement of paper PMC8728848:
# Some of the results follow.
# B1: EPL1 (Trichoderma atroviride), A0PCX2 (protein)
# chain: MQLSNLFKLALFTAAVSADTVSYDTGYDDASRSLTVVSCSDGTNGLITRYHWQTQGQIPRFPYIGGAQAVAGWNSPNCGTCWKLTYSGKTIYVLAIDHTAAGFNIGLDAMNALTNGNAVALGRVSATASQVAVSNCGL
# Experiments:
# Experiment in all cases: glycan array binding signal (z-score within array); higher = stronger binding
# Conditions in all cases: glycan notation: IUPAC condensed, linker removed
# [1] = biological target: Neu5Ac(a2-3)Gal(b1-4)GlcNAc(b1-2)[Neu5Ac(a2-3)Gal(b1-4)GlcNAc(b1-4)]Man(a1-3)[GlcNAc(b1-4)][Neu5Ac(a2-3)Gal(b1-4)GlcNAc(b1-2)[Neu5Ac(a2-3)Gal(b1-4)GlcNAc(b1-6)]Man(a1-6)]Man(b1-4)GlcNAc(b1-4)GlcNAc
# How it was run: (§1)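 Columns mapping to the same glycan were averaged after glycan names were converted to IUPAC-condensed notation. The data come from 3228 arrays in the Consortium for Functional Glycomics database, limited to those with an available protein sequence. Binding is reported as a within-array Z-score averaged across arrays of one protein sequence and across linkers.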
# [2] = biological target: Neu5Ac(a2-3)Gal(b1-4)GlcNAc(b1-2)[Neu5Ac(a2-3)Gal(b1-4)GlcNAc(b1-4)]Man(a1-3)[GlcNAc(b1-4)][Neu5Ac(a2-3)Gal(b1-4)GlcNAc(b1-4)Man(a1-6)]Man(b1-4)GlcNAc(b1-4)GlcNAc
# How it was run: as §1
# [3] = biological target: Neu5Ac(a2-3)Gal(b1-4)GlcNAc(b1-2)[Neu5Ac(a2-3)Gal(b1-4)GlcNAc(b1-6)]Man(a1-6)[Neu5Ac(a2-3)Gal(b1-4)GlcNAc(b1-2)Man(a1-3)]Man(b1-4)GlcNAc(b1-4)GlcNAc
# How it was run: as §1
# [4] = biological target: Neu5Ac(a2-3)Gal(b1-4)GlcNAc(b1-2)[Neu5Ac(a2-3)Gal(b1-4)GlcNAc(b1-6)]Man(a1-6)[Neu5Ac(a2-3)Gal(b1-4)GlcNAc(b1-2)Man(a1-3)][GlcNAc(b1-4)]Man(b1-4)GlcNAc(b1-4)GlcNAc
# How it was run: as §1
# [5] = biological target: Neu5Ac(a2-3)Gal(b1-4)GlcNAc(b1-3)Gal
# How it was run: as §1
# [6] = biological target: Neu5Ac(a2-3)Gal(b1-4)GlcNAc(b1-3)Gal(b1-3)GlcNAc
# How it was run: as §1
# [7] = biological target: Neu5Ac(a2-3)Gal(b1-4)GlcNAc(b1-3)Gal(b1-4)GlcNAc
# How it was run: as §1
# [8] = biological target: Neu5Ac(a2-3)Gal(b1-4)GlcNAc(b1-3)Gal(b1-4)GlcNAc(b1-2)Man(a1-3)[Neu5Ac(a2-3)Gal(b1-4)GlcNAc(b1-3)Gal(b1-4)GlcNAc(b1-2)Man(a1-6)]Man(b1-4)GlcNAc(b1-4)GlcNAc
# How it was run: as §1
# [9] = biological target: Neu5Ac(a2-3)Gal(b1-4)GlcNAc(b1-3)Gal(b1-4)GlcNAc(b1-3)Gal(b1-4)GlcNAc
# How it was run: as §1
# [10] = biological target: Neu5Ac(a2-3)Gal(b1-4)GlcNAc(b1-3)Gal(b1-4)GlcNAc(b1-3)Gal(b1-4)GlcNAc(b1-2)Man(a1-3)[Neu5Ac(a2-3)Gal(b1-4)GlcNAc(b1-3)Gal(b1-4)GlcNAc(b1-3)Gal(b1-4)GlcNAc(b1-2)Man(a1-6)]GalNAc
# How it was run: as §1
# [11] = biological target: Neu5Ac(a2-3)Gal(b1-4)GlcNAc(b1-3)Gal(b1-4)GlcNAc(b1-3)GalNAc
# How it was run: as §1
# [12] = biological target: Neu5Ac(a2-3)Gal(b1-4)GlcNAc(b1-3)Gal(b1-4)GlcNAc(b1-3)[Neu5Ac(a2-3)Gal(b1-4)GlcNAc(b1-3)Gal(b1-4)GlcNAc(b1-6)]GalNAc
# How it was run: as §1
# [13] = biological target: Neu5Ac(a2-3)Gal(b1-4)GlcNAc(b1-3)Gal(b1-4)GlcNAc(b1-6)[Gal(b1-3)]GalNAc
# How it was run: as §1
# [14] = biological target: Neu5Ac(a2-3)Gal(b1-4)GlcNAc(b1-3)Gal(b1-4)[Fuc(a1-3)]GlcNAc
# How it was run: as §1
# [15] = biological target: Neu5Ac(a2-3)Gal(b1-4)GlcNAc(b1-3)GalNAc
# How it was run: as §1
# [16] = biological target: Neu5Ac(a2-3)Gal(b1-4)GlcNAc(b1-3)[Neu5Ac(a2-3)Gal(b1-4)GlcNAc(b1-6)]GalNAc
# How it was run: as §1
# [17] = biological target: Neu5Ac(a2-3)Gal(b1-4)GlcNAc(b1-6)GalNAc
# How it was run: as §1
# [18] = biological target: Neu5Ac(a2-3)Gal(b1-4)GlcNAc(b1-6)[Gal(b1-3)]GalNAc
# How it was run: as §1
# [19] = biological target: Neu5Ac(a2-3)Gal(b1-4)GlcNAc(b1-6)[Neu5Ac(a2-3)Gal(b1-3)]GalNAc
# How it was run: as §1
# [20] = biological target: Neu5Ac(a2-3)Gal(b1-4)GlcNAc6S
# How it was run: as §1
# [21] = biological target: Neu5Ac(a2-3)Gal(b1-4)[Fuc(a1-3)]GlcNAc
# How it was run: as §1
# [22] = biological target: Neu5Ac(a2-3)Gal(b1-4)[Fuc(a1-3)]GlcNAc(b1-2)Man
# How it was run: as §1
# [23] = biological target: Neu5Ac(a2-3)Gal(b1-4)[Fuc(a1-3)]GlcNAc(b1-3)Gal
# How it was run: as §1
# [24] = biological target: Neu5Ac(a2-3)Gal(b1-4)[Fuc(a1-3)]GlcNAc(b1-3)Gal(b1-4)GlcNAc
# How it was run: as §1
# [25] = biological target: Neu5Ac(a2-3)Gal(b1-4)[Fuc(a1-3)]GlcNAc(b1-3)Gal(b1-4)[Fuc(a1-3)]GlcNAc(b1-3)Gal(b1-4)[Fuc(a1-3)]GlcNAc
# How it was run: as §1
# [26] = biological target: Neu5Ac(a2-3)Gal(b1-4)[Fuc(a1-3)]GlcNAc(b1-3)GalNAc
# How it was run: as §1
# [27] = biological target: Neu5Ac(a2-3)Gal(b1-4)[Fuc(a1-3)]GlcNAc(b1-6)[Gal(b1-3)]GalNAc
# How it was run: as §1
# [28] = biological target: Neu5Ac(a2-3)Gal(b1-4)[Fuc(a1-3)]GlcNAc(b1-6)[Neu5Ac(a2-3)Gal(b1-3)]GalNAc
# How it was run: as §1
# [29] = biological target: Neu5Ac(a2-3)Gal(b1-4)[Fuc(a1-3)]GlcNAc6S
# How it was run: as §1
# [30] = biological target: Neu5Ac(a2-3)Gal6S(b1-4)GlcNAc
# How it was run: as §1
# [31] = biological target: Neu5Ac(a2-3)Gal6S(b1-4)[Fuc(a1-3)]GlcNAc
# How it was run: as §1
# Neu5Ac(a2-3)GalNAc = biological target: Neu5Ac(a2-3)GalNAc
# How it was run: as §1
# [32] = biological target: Neu5Ac(a2-3)GalNAc(b1-4)GlcNAc
# How it was run: as §1
# [33] = biological target: Neu5Ac(a2-3)[GalNAc(b1-4)]Gal(b1-4)Glc
# How it was run: as §1
# [34] = biological target: Neu5Ac(a2-3)[GalNAc(b1-4)]Gal(b1-4)GlcNAc
# How it was run: as §1
# [35] = biological target: Neu5Ac(a2-3)[GalNAc(b1-4)]Gal(b1-4)GlcNAc(b1-3)GalNAc
# How it was run: as §1
# [36] = biological target: Neu5Ac(a2-3)[Neu5Ac(a2-6)]GalNAc
# How it was run: as §1
# Neu5Ac(a2-6)Gal = biological target: Neu5Ac(a2-6)Gal
# How it was run: as §1
# [37] = biological target: Neu5Ac(a2-6)Gal(b1-3)GlcNAc(b1-3)[Gal(b1-4)GlcNAc(b1-6)]Gal(b1-4)Glc
# How it was run: as §1
# Neu5Ac(a2-6)Gal(b1-4)Glc = biological target: Neu5Ac(a2-6)Gal(b1-4)Glc
# How it was run: as §1
# [38] = biological target: Neu5Ac(a2-6)Gal(b1-4)GlcNAc
# How it was run: as §1
# [39] = biological target: Neu5Ac(a2-6)Gal(b1-4)GlcNAc(b1-2)Man
# How it was run: as §1
# [40] = biological target: Neu5Ac(a2-6)Gal(b1-4)GlcNAc(b1-2)Man(a1-3)Man(b1-4)GlcNAc(b1-4)GlcNAc
# How it was run: as §1
# [41] = biological target: Neu5Ac(a2-6)Gal(b1-4)GlcNAc(b1-2)Man(a1-3)[Gal(b1-4)GlcNAc(b1-2)Man(a1-6)]Man(b1-4)GlcNAc(b1-4)GlcNAc
# How it was run: as §1
# [42] = biological target: Neu5Ac(a2-6)Gal(b1-4)GlcNAc(b1-2)Man(a1-3)[GlcNAc(b1-2)Man(a1-6)]Man(b1-4)GlcNAc(b1-4)GlcNAc
# How it was run: as §1
binder,measurement,setting,value
B1,glycan array binding signal (z-score),[1],0.049
same,glycan array binding signal (z-score),[2],0.648
same,glycan array binding signal (z-score),[3],0.484
same,glycan array binding signal (z-score),[4],-0.266
same,glycan array binding signal (z-score),[5],-0.362
same,glycan array binding signal (z-score),[6],-0.151
same,glycan array binding signal (z-score),[7],-0.4
same,glycan array binding signal (z-score),[8],0.387
same,glycan array binding signal (z-score),[9],0.148
same,glycan array binding signal (z-score),[10],0.016
same,glycan array binding signal (z-score),[11],-0.438
same,glycan array binding signal (z-score),[12],0.045
same,glycan array binding signal (z-score),[13],-0.177
same,glycan array binding signal (z-score),[14],-0.32
same,glycan array binding signal (z-score),[15],-0.241
same,glycan array binding signal (z-score),[16],-0.13
same,glycan array binding signal (z-score),[17],-0.334
same,glycan array binding signal (z-score),[18],-0.154
same,glycan array binding signal (z-score),[19],-0.379
same,glycan array binding signal (z-score),[20],-0.025
same,glycan array binding signal (z-score),[21],-0.138
same,glycan array binding signal (z-score),[22],-0.347
same,glycan array binding signal (z-score),[23],0.114
same,glycan array binding signal (z-score),[24],0.07
same,glycan array binding signal (z-score),[25],0.732
same,glycan array binding signal (z-score),[26],1.06
same,glycan array binding signal (z-score),[27],0.433
same,glycan array binding signal (z-score),[28],0.767
same,glycan array binding signal (z-score),[29],-0.326
same,glycan array binding signal (z-score),[30],0.075
same,glycan array binding signal (z-score),[31],0.014
same,glycan array binding signal (z-score),Neu5Ac(a2-3)GalNAc,-0.216
same,glycan array binding signal (z-score),[32],-0.428
same,glycan array binding signal (z-score),[33],0.036
same,glycan array binding signal (z-score),[34],-0.119
same,glycan array binding signal (z-score),[35],0.029
same,glycan array binding signal (z-score),[36],0.537
same,glycan array binding signal (z-score),Neu5Ac(a2-6)Gal,-0.387
same,glycan array binding signal (z-score),[37],-0.314
same,glycan array binding signal (z-score),Neu5Ac(a2-6)Gal(b1-4)Glc,-0.183
same,glycan array binding signal (z-score),[38],-0.313
same,glycan array binding signal (z-score),[39],-0.472
same,glycan array binding signal (z-score),[40],0.209
same,glycan array binding signal (z-score),[41],-0.597
same,glycan array binding signal (z-score),[42],-0.298
